The source of these data is PubChem BioAssay AID1159614 (National Center for Advancing Translational Sciences (NCATS), 2016).

SMILES strings stand for the structures. Out of some 45,000 compounds screened, about 65 (0.1%) were called active. Calls follow the shape of the dose curve; as a rule, active = well fitted activation curve with a large enough effect; inconclusive = small, poorly fitted or top-dose-only effect; inactive = no such curve, though single readings can be large or run the other way. Some of the results follow.

Chain of UniProt P54803 (P54803 whole entry, looked up): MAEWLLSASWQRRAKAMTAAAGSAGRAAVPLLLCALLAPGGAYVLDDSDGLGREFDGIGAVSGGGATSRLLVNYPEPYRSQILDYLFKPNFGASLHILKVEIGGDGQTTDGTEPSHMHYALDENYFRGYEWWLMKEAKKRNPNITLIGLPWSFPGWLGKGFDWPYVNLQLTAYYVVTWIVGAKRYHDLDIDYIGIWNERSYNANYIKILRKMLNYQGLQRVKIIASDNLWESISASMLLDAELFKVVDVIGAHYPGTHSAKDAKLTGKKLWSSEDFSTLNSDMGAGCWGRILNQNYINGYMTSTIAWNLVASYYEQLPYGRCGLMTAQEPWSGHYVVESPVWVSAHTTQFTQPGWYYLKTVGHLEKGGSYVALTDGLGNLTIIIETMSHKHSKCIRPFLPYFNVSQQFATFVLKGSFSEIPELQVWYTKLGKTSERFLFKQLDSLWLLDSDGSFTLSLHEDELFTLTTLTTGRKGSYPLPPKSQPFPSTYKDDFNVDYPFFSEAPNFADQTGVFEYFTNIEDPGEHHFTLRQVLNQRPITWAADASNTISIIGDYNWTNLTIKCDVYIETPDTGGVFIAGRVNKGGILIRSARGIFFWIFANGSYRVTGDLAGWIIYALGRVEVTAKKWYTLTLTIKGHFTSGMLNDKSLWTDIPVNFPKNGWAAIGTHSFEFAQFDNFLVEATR

For the test, the target named is Galactocerebrosidase (Homo sapiens) (UniProt P54803). Description: A Novel Cell-Based Assay to Identify Small Molecules for B -Galactocerebrosidase. Also: 0% is about no effect; nearly all actives have a fitted effect of over 65% in size. Conditions: 145M-Twi-hGALC-G270D cells (Twitcher mouse brain line with human GALC G270D), HMU-beta-Gal fluorescence, 48 h; series mostly up to 57.5 µM; activation: at the top concentration. A digest of the protocol:
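Brain-derived Twitcher mouse 145M-Twi cells stably expressing human GALC-G270D or wild-type GALC, treated live, then residual GALC activity read by fluorescence of HMU-b-Gal substrate (0.1 mM final) in citrate-phosphate buffer pH 5.2 with sodium taurocholate. Signal increase indicates enhancement.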
Take `Cc1nn2c(=O)cc(COC(=O)COc3ccccc3C)nc2s1`: the “activation” value is inactive: -9.56%.

Turning to `O=C(O)C1=CC(c2ccc(Br)cc2)n2ncnc2N1` (stereo not given), the “activation” value was inactive: 24.2%. The same measure for `CCOC(=O)Cn1cnc2c(cnn2-c2ccc(C)c(C)c2)c1=O`: inactive: -3.49%; for `COc1ccc(NC(=O)c2nc(S(=O)(=O)Cc3ccc(C)cc3)ncc2Cl)cc1`: inactive: -17.1%; for `CC1CCC(NC(=O)CCc2cn(Cc3ccc(F)cc3)c3ccccc23)CC1` (stereo not given): inactive: -0.875%. The same measure for `Cc1ccccc1C(=O)NCc1ccc2c(c1)CCN2C(=O)c1ccc(F)cc1`: inactive: -13.9%; for `COc1cc2c(cc1OC)C(COc1ccc(C(C)C)cc1)N(C(=O)COc1ccccc1)CC2` (stereo not given): inactive: -19.1%. The same measure for `COc1ccccc1NC(=O)C1CCN(c2ncnc3c2nc2n3CCCCC2)CC1`: inactive: -10.9%. On to `COc1ccc(N2CC(NC(=O)c3ccc(S(=O)(=O)N4CCOCC4)cc3)CC2=O)cc1` (stereo not given), for which the “activation” value was inactive: 3.54%.

For the compound `CCOC(=O)CSc1ncnc2c1c(-c1ccccc1)cn2-c1ccc(OC)cc1`, the “activation” value was inactive: -6.72%. As for `CCS(=O)(=O)c1nc(S(=O)(=O)c2ccc(C)cc2)c(NCc2ccccc2Cl)s1`, the “activation” value is inactive: -12.6%.

Take `CCOC(=O)[C@H](CCc1ccccc1)N[C@@H](C)C(=O)N1Cc2ccccc2C[C@H]1C(=O)O`: the “activation” value is inactive: -11.9%. The same measure for `CCOc1ccc(C(=O)c2cn(CC(=O)Nc3ccc(C)c(C)c3)c3ccc(OCC)cc3c2=O)cc1`: inactive: -15.1%. For `CCOc1ccc(Nc2nc(Nc3ccc(OCC)cc3)nc(N3CCOCC3)n2)cc1` the value was inactive: -14.9%. As for `COc1ccc(CCNC(=O)CCCn2c(=O)c3cccn3c3ccc(F)cc32)cc1OC`, the “activation” value is inactive: -10.9%. For `COc1ccc(OCC(=O)N2CCN(C(=O)c3ccc(OC)cc3)CC2)cc1` the value was inactive: -3.65%; for `COc1cccc(NC(=O)c2oc3ccccc3c2NC(=O)Cc2cccc(C)c2)c1`, inactive: -15.2%; for `COC(=O)c1ccc(Cl)cc1NC(=O)N1CCC(CN2CCC(C)CC2)CC1`, inactive: -3.67%.

Consider `CCc1cccc(NC(=O)c2coc(=O)c3ccccc23)c1`, for which the “activation” value was inactive: 6.52%. Consider `Cc1cn2c(=O)cc(COC(=O)C(C)Oc3ccccc3)nc2s1` (stereo not given), for which the “activation” value is inactive: -5.16%. The same measure for `Cc1ccc(C)c(CN2C(=O)C(O)(c3c[nH]c4ccccc34)c3ccccc32)c1` (stereo not given): inactive: -32.2%.

For the compound `O=C(COc1ccc(Br)cc1)Nc1cccc2cccnc12`, the “activation” value is inactive: -26.1%. Regarding `COC(=O)CN1C(=O)C(C)(C)c2cc(S(=O)(=O)Nc3ccc(C(C)C)cc3)ccc21`, the “activation” value is inactive: -17.6%. With `Cc1ccccc1OCC(=O)N(Cc1ccc(C(C)C)cc1)C1CCS(=O)(=O)C1` (stereo not given), the “activation” value was inactive: -18.7%. In the case of `O=C(NCc1ccc(Cl)cc1)c1cc(-c2ccc(F)cc2)on1`, the “activation” value is inactive: -3.09%. Regarding `CCc1ccc(-n2nc(CO)c(C(=O)NCCCCc3ccccc3)n2)cc1`, the “activation” value is inactive: 1.2%. The same measure for `CCc1cccc(C)c1NS(=O)(=O)c1ccc(-n2cccn2)cc1`: inactive: -12.3%; for `COc1ccc(-c2nn(-c3ccc(F)cc3F)c3c2cnc2ccc(F)cc23)cc1`: inactive: -9.48%; for `CC(=O)N1CCCc2cc(S(=O)(=O)NCc3ccc(OC(C)C)cc3)ccc21`: inactive: -14%. As to `COc1ccc(C(=O)Nc2ccc(-c3cc(C(F)(F)F)nn3-c3ccccc3)cc2)cc1OC`, the “activation” value is inactive: -27.2%. For the compound `CC(NC(=O)c1cc2sccc2n1Cc1ccc(F)cc1)c1ccccc1` (stereo not given), the “activation” value is inactive: -17.7%. As for `CCOc1ccc(-c2nonc2NC(=O)c2oc3cc(Br)ccc3c2C)cc1`, the “activation” value was inactive: -27.7%. For `CCOc1ccc(C(=O)Nc2ccc3nc(SCC(=O)N4CCOCC4)sc3c2)cc1` the value was inactive: 3.98%. The same measure for `Cc1ccc(OCC(=O)Nc2ccc(-c3nc4ccc(C)cc4o3)cc2)cc1`: inactive: -14.1%; for `CCN1CCN(C(=O)c2ccc3c(c2)N(Cc2cc(C)ccc2C)C(=O)c2ccccc2S3(=O)=O)CC1`: inactive: -8.9%.

On to `Cc1cccc(C(=O)Nc2cccc(C(=O)OCc3cc(=O)n4nc(C5CC5)sc4n3)c2)c1`, for which the “activation” value was inactive: -8.27%.

As to `N#Cc1ccccc1NC(=O)C(=O)NCC(c1cccnc1)N1CCN(c2ccccc2)CC1` (stereo not given), the “activation” value was inactive: -4.62%. For `Cc1cc(NC(=O)CN(c2cccc(C)c2C)S(=O)(=O)c2ccccc2)ccc1Br` the value was inactive: -15.8%; for `O=C(Nc1ccc(F)cc1F)C1CCCN1S(=O)(=O)c1cccc2nsnc12` (stereo not given), inactive: -12.1%. The same measure for `COc1ccc(CCC(=O)NCc2ccc3c(c2)CCN3C(=O)c2cccc(C)c2)cc1`: inactive: -8.69%; for `CCCOc1ccc(CNC(=O)C2CCN(c3nn4c(=O)cc(C)nc4s3)CC2)cc1`: inactive: -7.24%; for `CCOC(=O)c1c(C)oc2nc(C)nc(NCCc3ccc(S(N)(=O)=O)cc3)c12`: inactive: -12.9%.

On to `O=C(NCCc1ccccc1)c1cnc2sc(N3CCOCC3)nn2c1=O`, for which the “activation” value was inactive: -18%. Consider `CCOc1ccccc1Nc1ccc2cc(S(=O)(=O)N3CCCCC3)ccc2n1`, for which the “activation” value was inactive: -23.9%.

Regarding `CCCSCCCNC(=O)CN1C(=O)COc2ccc(S(=O)(=O)N3CCCCCC3)cc21`, the “activation” value was inactive: 1.01%.

For the compound `Cc1cccc(-c2nnc(SCCC(=O)O)o2)c1`, the “activation” value was inactive: 19%. In the case of `CCOC(=O)c1[nH]c(C)c(C(=O)NCc2ccc(F)cc2)c1C`, the “activation” value was inactive: -16.9%. The same measure for `COc1cc(CNCCSc2nnnn2C)ccc1OCc1c(F)cccc1Cl`: inactive: -11.4%. The same measure for `O=[N+]([O-])c1ccc(C(c2sc3nc(-c4ccco4)nn3c2O)N2CCC3(CC2)OCCO3)cc1` (stereo not given): inactive: -8.34%; for `CC(C)c1ccc(OCC(=O)Nc2cc(-c3nc4ncccc4o3)ccc2Cl)cc1`: inactive: 4.09%.
